Measurements as given in ChEMBL document CHEMBL4888484, “Replenishing the malaria drug discovery pipeline: Screening and hit evaluation of the MMV Hit Generation Library 1 (HGL1) against asexual blood stage Plasmodium falciparum ,using a nano luciferase reporter read-out” (2022).
Screen size: about 150,000 compounds; about 540 (0.36%) showed an effect of 50% or more. This is one part of the list.

Each compound was assayed on Plasmodium falciparum (assay: Primary screen in NF54 nanoGlo assay, in single point, at 2uM, 72h; a lower Z score goes with more inhibition). Details: timepoint 72 hour.
Format: functional, Erythrocyte
In the case of `Cc1cc(N(C)CC(=O)N2CCCC2)n2ncnc2n1`, the “% Inhibition” value is reported as -9% and the Z score is reported as 0.85. For `CN(CCO)Cc1cc2n(n1)CCN(c1ccc(C(F)(F)F)cn1)C2`, the “% Inhibition” value was 10% and the Z score was -1.38. In the case of `COc1cccc(N2CCN(c3cc4n[nH]c(=O)n4cn3)CC2)c1`, the “% Inhibition” value is reported as 36% and the Z score is reported as -0.7. For `Cc1noc(-c2ccc(OC(F)(F)F)cc2)c1C(=O)N[C@H]1CCC[C@@H]1OCc1ccccc1`, the “% Inhibition” value was -5% and the Z score was 0.55. `O=C1OCCC1N1CCCC(Cn2cncn2)C1` (stereo unspecified) was tested, and the “% Inhibition” value was 5% and the Z score was -0.63. For `CC1CCCC1(C#N)NC(=O)CCn1cccn1` (stereo unspecified), the “% Inhibition” value was 2% and the Z score was -0.24. In the case of `CS(=O)(=O)c1ccc2nc(NC(=O)C3CCCC3)sc2c1`, the “% Inhibition” value is reported as -1% and the Z score is reported as 0.28. With `CN(C)Cc1csc(CNC(=O)Nc2cc3n(n2)CCCC3)n1` the “% Inhibition” value was -3% and the Z score was 0.66. For `Cc1cc(C(=O)N2C[C@@H]3CC[C@H]2CN(Cc2cscn2)C3)c(C)o1`, the “% Inhibition” value was -3% and the Z score was 0.61. `Cc1cccc(-c2nccc(Oc3ccc(C(=O)Nc4ccc5c(c4)OCCO5)cc3)n2)c1` was tested, and the “% Inhibition” value was -9% and the Z score was 1.68. For `COCCC1(CNS(=O)(=O)c2cccc3c2OC(C)(C)C3)CC1`, the “% Inhibition” value was -5% and the Z score was 0.54. `O=C(NC1CCCC(C2CC2)C1)c1cccc[n+]1[O-]` (stereo unspecified) was tested, and the “% Inhibition” value was 1% and the Z score was -0.07. In the case of `CCN(Cc1nn(-c2ccccc2)c2c1CN(Cc1cc(F)ccc1F)CC2)C(=O)NCc1ccccc1`, the “% Inhibition” value is reported as -11% and the Z score is reported as 1.62. `CCc1nc(C)c(CC(=O)N2CC[C@H](OC)C2)c(=O)[nH]1` was tested, and the “% Inhibition” value was -13% and the Z score was 2.66. `CC(C)c1noc(C(C)N2CCCN(C(=O)C3CCCO3)CC2)n1` (stereo unspecified) was tested, and the “% Inhibition” value was -18% and the Z score was 1.51. For `Cc1ncsc1C(=O)NC1CCC(F)(F)CC1`, the “% Inhibition” value was -8% and the Z score was 1.52. In the case of `Cc1ccc(CNC(=O)C(=O)Nc2cccc(N3CCCC3=O)c2)cc1`, the “% Inhibition” value is reported as -3% and the Z score is reported as 0.47. `CCc1c(C)sc(NC(=O)C(C)(C)C)c1C#N` was tested, and the “% Inhibition” value was 31% and the Z score was -3.52. `O=C1C[C@H]2CC[C@@H](CN1)N2C(=O)Cn1nnc2ccccc2c1=O` was tested, and the “% Inhibition” value was -8% and the Z score was 1.29. `Cc1cc(C)cc(Oc2cnn(-c3ccccc3)c(=O)c2Nc2cccc(C(=O)NCc3ccccn3)c2)c1` was tested, and the “% Inhibition” value was -14% and the Z score was 1.25. For `Cc1nc(-c2c(-c3ccccc3)ncn2C2CC(C)(C)NC(C)(C)C2)c[nH]1`, the “% Inhibition” value was 2% and the Z score was -0.28. With `O=C(N1CCCC1)N1CCC2(CCN(C/C=C/c3ccco3)CC2)CC1` the “% Inhibition” value was -3% and the Z score was 0.51. For `Cc1ncsc1CN(C)c1ncnc2[nH]nc(C)c12`, the “% Inhibition” value was -9% and the Z score was 1.39. For `O=C(Cc1nnc2cc(-c3nc(C4CC4)no3)ccn12)Nc1cccc(F)c1`, the “% Inhibition” value was -6% and the Z score was 1.05. `Cc1cc(-c2csc(NC(=O)c3cncnc3C)n2)c(F)cc1F` was tested, and the “% Inhibition” value was 0% and the Z score was -0.02. For `Cc1c(CNCCN2CCC[C@H](CO)C2)[nH]c2ccc(Cl)cc12`, the “% Inhibition” value was -1% and the Z score was 0.11. With `Cc1nnc(CNC(=O)C2C(C)C2(F)F)n1C` (stereo unspecified) the “% Inhibition” value was -7% and the Z score was 0.81. In the case of `C[C@H]1CN(C(=O)c2cc(N3CCCC3=O)ccc2F)CCN1CC(C)(C)O`, the “% Inhibition” value is reported as -16% and the Z score is reported as 2.55. `CC(=O)NCCCC(=O)N[C@@H](C)c1ccc(C)nc1` was tested, and the “% Inhibition” value was -14% and the Z score was 1.49. `Cn1cc(-c2nn(S(=O)(=O)c3ccccc3)c(-c3cnn(C)c3)c2Cl)cn1` was tested, and the “% Inhibition” value was 37% and the Z score was -4.17. With `COc1cccc(-c2noc3nc(C)cc(C(=O)N[C@@H](C)CN4CCOCC4)c23)c1` the “% Inhibition” value was 1% and the Z score was -0.17. `Cc1cc2nn(CC(=O)NCc3ccccc3Cl)c(=O)n2c(-c2ccccc2)n1` was tested, and the “% Inhibition” value was -6% and the Z score was 1.02. For `O=C1CCCC(=O)N1c1ccc(NC(=O)C2(c3ccc(Cl)cc3)CCOCC2)cc1`, the “% Inhibition” value was 35% and the Z score was -3.93. In the case of `O=C(Cn1c(=O)n(CCc2ccccc2)c(=O)c2ccccc21)NCCCc1ccccc1`, the “% Inhibition” value is reported as -5% and the Z score is reported as 0.68. `Cc1nc[nH]c1C(=O)N1CCC[C@H](c2[nH]ncc2-c2ccccc2)C1` was tested, and the “% Inhibition” value was -10% and the Z score was 1.05. `CN(C)C(=O)[C@@]12CN(C(=O)COc3ccccc3)C[C@@H]1CN(C(=O)c1ccccc1)C2` was tested, and the “% Inhibition” value was -1% and the Z score was 0.09. With `Cc1nc(C(=O)N2CCC[C@H](CCC(=O)N3CCN(c4ccccn4)CC3)C2)cs1` the “% Inhibition” value was -9% and the Z score was 1.12. `C[C@H](NC(N)=O)C(=O)NCc1ccc(Cl)s1` was tested, and the “% Inhibition” value was 0% and the Z score was -0.04. For `Cc1ccccc1OC1CCCCC1NC(=O)c1nnn(C2CCNC2)c1C` (stereo unspecified), the “% Inhibition” value was 2% and the Z score was -0.38. For `CC(=O)N1CCC(N[C@H]2CCCc3nc(-c4ccccc4)ncc32)CC1`, the “% Inhibition” value was -13% and the Z score was 1.75. `CC(=O)N1CCC[C@H]1c1nc(CC(C)C)nn1Cc1ccccc1Cl` was tested, and the “% Inhibition” value was -11% and the Z score was 2.28. For `O=C1c2cccc3c2N(CCC3)C(=O)[C@]1(F)c1ccccc1`, the “% Inhibition” value was -14% and the Z score was 1.67. `COc1ccc(-c2cc(C(=O)NCc3ccccn3)n[nH]2)cc1S(=O)(=O)N1CCCCC1` was tested, and the “% Inhibition” value was -4% and the Z score was 0.62.
